# Assay results taken from PubChem BioAssay AID588342 (National Center for Advancing Translational Sciences (NCATS), 2011).
# Hit rate of the full screen: of about 360,000 compounds, about 25,000 (6.9%) were called active. The shares of active, inactive and inconclusive entries below differ from those in the screen. Calls come from the whole dose curve; as a rule, active = well fitted inhibition curve with a large enough effect; inconclusive = small, poorly fitted or top-dose-only effect; inactive = flat fitted curve, though single readings scatter. A potency beside an inconclusive call is a rough fit, not a confirmed value.
# Molecular target: Luciferin 4-monooxygenase (Photinus pyralis) (UniProt P08659)
# Sequence of UniProt P08659 (P08659 whole entry, looked up): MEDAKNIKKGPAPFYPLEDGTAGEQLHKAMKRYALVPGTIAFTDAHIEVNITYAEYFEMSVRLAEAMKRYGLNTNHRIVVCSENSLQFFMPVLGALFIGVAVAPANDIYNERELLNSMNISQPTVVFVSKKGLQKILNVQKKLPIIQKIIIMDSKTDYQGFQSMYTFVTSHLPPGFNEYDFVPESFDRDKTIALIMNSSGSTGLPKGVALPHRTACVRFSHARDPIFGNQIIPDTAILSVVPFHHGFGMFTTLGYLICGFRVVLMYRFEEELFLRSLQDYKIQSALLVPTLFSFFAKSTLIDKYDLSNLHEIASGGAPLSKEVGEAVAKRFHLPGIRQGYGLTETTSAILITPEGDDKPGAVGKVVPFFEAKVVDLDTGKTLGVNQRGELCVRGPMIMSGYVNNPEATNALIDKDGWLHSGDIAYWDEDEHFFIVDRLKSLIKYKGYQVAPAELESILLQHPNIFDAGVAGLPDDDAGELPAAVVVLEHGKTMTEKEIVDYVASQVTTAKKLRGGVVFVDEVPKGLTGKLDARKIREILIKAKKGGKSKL
# Test: qHTS profiling assay for firefly luciferase inhibitor/activator using purifed enzyme and Km concentrations of substrates (counterscreen for miR-21 project); note: nearly all actives have a fitted effect of over 55% in size;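 for activity change, negative = inhibition: plate controls were vehicle for no effect and reference inhibitor for full effect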
# Details: purified FLuc, luminescence inhibition; series mostly up to 57.5 µM; activity change, negative = inhibition: at the top concentration
# Summary of the method: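 Purified P. pyralis luciferase, 10 nM final, with Km-level 10 uM D-luciferin and 10 uM ATP in 50 mM Tris acetate pH 7.5, 10 mM Mg acetate, 0.01% Tween-20, 0.05% BSA; 6-point qHTS titration about 60 µM downward; luminescence read.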
# Potency is the fitted concentration of half-maximal effect; tags give direction and shape of the fitted curve.
Compound,Potency,"activity change, negative = inhibition"
Cc1cccc(-c2ocnc2C(=O)Nc2ccccc2C(=O)N2CCCC2)c1,"inconclusive: 30.1 µM [inhibitor, single point]",
Oc1ccc(-c2nc3ncccn3c2Nc2ccc3c(c2)OCCO3)cc1,"inconclusive: 33.8 µM [inhibitor, single point]",
CCn1c(CCNC(=O)c2cccs2)nnc1SCC(=O)Nc1ccc(Cl)cc1,active: 16.9 µM,
CCc1ccc2c(c1)C(=O)C[C@]1(CCC[C@H](C)C1)O2,,inactive: -1.93%
Cc1ccc(NC(=O)c2sc3ncn(CC(=O)N4CCN(c5ccccn5)CC4)c(=O)c3c2C)cc1F,"inconclusive: 33.8 µM [inhibitor, single point]",
O=C(CSc1ncnc2c1cnn2-c1ccccc1)NC1CCCC1,"inconclusive: 26.9 µM [inhibitor, partial curve, poor fit]",
CCOc1ncccc1C(=O)Nc1cc(S(=O)(=O)N2CCCCC2)ccc1Cl,,inactive: 2.05%
Brc1ccc(/C=N/Nc2ccccn2)cc1,active: 6.75 µM,
COc1cccc(/C=N/NC(=O)c2nnn(-c3nonc3N)c2-c2cccs2)c1,"inconclusive: 26.9 µM [inhibitor, single point]",
COC(=O)Cn1c2nc3ccccc3nc2c2cccc(C)c21,,inactive: -3.07%
CN1CC2(Cc3c1ccc1ccccc31)C(=O)OC(C)(C)OC2=O,,inactive: -0.323%
CSc1nc2sc3c(c2c(=O)n1C)CCCC3,"inconclusive: 10.7 µM [inhibitor, partial curve, poor fit]",
O=C(OCc1cc(=O)n2c(n1)sc1ccccc12)c1cccc(O)c1,"inconclusive: 21.3 µM [inhibitor, single point]",
COc1ccc(NC(=O)CN(C)C(=O)/C=C/c2cn(-c3ccccc3)nc2-c2cccs2)cc1,"inconclusive: 23.9 µM [inhibitor, single point]",
COc1ccc(-c2nn(-c3ccccc3C)cc2CNCCc2cnc[nH]2)cc1F,,inactive: 0.938%
COc1cc(/C=N/OCC(=O)Nc2ccc(OC(F)F)cc2)ccc1OCc1ccccc1,"inconclusive: 16.9 µM [inhibitor, partial curve]",
COCCn1c(SCC(=O)Nc2ccc3c(c2)CCC3)nc2ccccc2c1=O,,inactive: 3.78%
O=C(NNC(=O)c1ccccc1F)c1ccc2nc[nH]c2c1,"inconclusive: 30.1 µM [inhibitor, partial curve, poor fit]",
O=C(NCCc1ccccc1)C1CCN(c2nc3ccccc3o2)CC1,,inactive: -0.142%
COC(=O)c1c(-c2ccc(C)cc2)csc1NC(=O)C1CC=CCC1C(=O)O (stereo not given),"inconclusive: 37.9 µM [inhibitor, single point]",
